The record followed here is patent US20200148733A1 (Pieris, published 2020).

The target of experiment [1] is T1, human IL-17A (human, UniProt Q16552 24-155).
T1 construct: also called hIL-17A; IL-17 A/A
Nature of the experiment: competition ELISA (ECL): biotinylated hIL-17A pre-incubated with varied binder, free hIL-17A captured on coated hIL-17RA (competitor). (In general: An ELISA detects its analyte on a solid surface through an enzyme-linked reagent.)

For experiment [2], the target named is T2, human IL-23 (human, UniProt Q9NPF7 20-189; P29460 23-328).
T2 construct: Heterodimer of p19 and p40; in the proliferation assays CAT # HZ-1254, HumanZyme; also called hIL-23; hIL23
T2 sequence (looked up) 1: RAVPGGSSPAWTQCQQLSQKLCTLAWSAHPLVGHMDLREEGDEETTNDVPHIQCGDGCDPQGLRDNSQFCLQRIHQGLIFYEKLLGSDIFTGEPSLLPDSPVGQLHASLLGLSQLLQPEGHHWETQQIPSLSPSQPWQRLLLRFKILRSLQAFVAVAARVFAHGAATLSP
T2 sequence (looked up) 2: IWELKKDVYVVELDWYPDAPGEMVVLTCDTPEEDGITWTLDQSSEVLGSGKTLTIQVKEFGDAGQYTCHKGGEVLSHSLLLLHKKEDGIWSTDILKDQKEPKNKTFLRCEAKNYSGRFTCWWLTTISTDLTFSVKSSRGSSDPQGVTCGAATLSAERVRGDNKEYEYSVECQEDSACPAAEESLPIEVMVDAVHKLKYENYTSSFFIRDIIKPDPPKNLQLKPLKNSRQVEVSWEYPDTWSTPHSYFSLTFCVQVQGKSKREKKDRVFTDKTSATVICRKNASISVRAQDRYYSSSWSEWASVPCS
The experiment is described as follows: competition ECL assay: biotinylated hIL-23 pre-incubated with varied binder, free hIL-23 captured on coated soluble hIL-23R (competitor).

For experiment [3], the target named is T1, human IL-17A. The experiment is described as follows: cell-based or functional assay.
T1 sequence (Q16552 24-155 limits assumed): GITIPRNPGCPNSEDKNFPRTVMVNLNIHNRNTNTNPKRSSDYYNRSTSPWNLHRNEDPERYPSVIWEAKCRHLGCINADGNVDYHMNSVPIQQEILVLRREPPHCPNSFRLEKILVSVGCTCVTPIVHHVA
Experiment [4] deals with T2, human IL-23. Nature of the experiment: cell-based or functional assay.
The target of experiment [5] is T1, human IL-17A. Nature of the experiment: cell-based or functional assay. This is another data set of the same source.
The next experiment has as its target T3, human IL-12p40 (human, UniProt P29460 23-328).
T3 construct: also called hIL-12p40
T3 sequence (looked up): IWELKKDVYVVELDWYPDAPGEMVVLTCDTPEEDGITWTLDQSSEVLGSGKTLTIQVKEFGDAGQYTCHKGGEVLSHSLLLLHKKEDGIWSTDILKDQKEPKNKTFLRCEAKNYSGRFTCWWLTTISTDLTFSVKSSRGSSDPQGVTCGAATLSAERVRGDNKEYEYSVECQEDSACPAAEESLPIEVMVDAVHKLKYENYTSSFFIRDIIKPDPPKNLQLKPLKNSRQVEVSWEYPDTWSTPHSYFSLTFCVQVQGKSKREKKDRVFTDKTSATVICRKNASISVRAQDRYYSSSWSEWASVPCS
The experiment is described as follows: solution competition ELISA, 100 nM mutein, plate with biotinylated hIL-23. The protocol: In the following detailed experimental protocol, incubation and washing steps were performed as described above in the competition ELISA protocol. A 384-well plate suitable for fluorescence measurements (Greiner FLUOTRAC™ 600, black flat bottom, high-binding) was coated with 20 μl of Neutravidin at a concentration of 5 μg/ml in PBS over night at 4° C. After washing, the Neutravidin-coated wells were blocked with 100 μl blocking buffer (PBS-T/BSA) for 1h at room temperature.
Note that the lipocalein muteins contained a C-terminal Streptag fusion to allow binding and subsequent detection with the aid of an anti-Streptag antibody.

The target of experiment [6] is T2, human IL-23. The experiment is described as follows: competition ELISA (fluorescence): 1.6 nM hIL-23 pre-incubated with varied mutein, free hIL-23 captured on hIL-23R-Fc (competitor).

B1: fusion protein SEQ ID NO: 55 (designed binder)
chain: ASDEEIQDVSGTWYLKAMTVDFWCSGIHEESVTPMTLTTLEGGNLEAKVTMDIEGFLQEFKAVLEKTDEPGKYTADGGKHVAYIIRSHVKDHYIFYSEGDCPGPVPGVWLVGRDPKNNLEALEDFEKAAGARGLSTESILIPRQSETSSPGSDGGGGSGGGGSASDEEIQDVSGTWYLKAMTVDFWCSGIHEESVTPMTLTTLEGGNLEAKVTMDIEGFLQEFKAVLEKTDEPGKYTADGGKHVAYIIRSHVKDHYIFYSEGDCPGPVPGVWLVGRDPKNNLEALEDFEKAAGARGLSTESILIPRQSETSSPGSDGGGGSGGGGSQDSTSDLIPAPPLSKVPLQQNFQDNQFHGKWYVVGEAGNLLLREDKDPRKMTATIYELKEDKSYDVTRVEFGVKTYKYQIGTFVPGSQPGEFTLGGIKSMPGMTSFLVRVVSTNYNQHAMVFFKYVYQNREYFEITLYGRTKELTSELKENFIRFSKSLGLPENHIVFPVPIDQAIDG
What is called IC50 is the point on the concentration scale where inhibition reaches its midpoint. Consider B1, for which the IC50 amounted to 0.019 nM in the experiment with human IL-17A [1] and 0.65 nM with human IL-23 [2].

B2: fusion protein SEQ ID NO: 57 (designed binder)
chain: QDSTSDLIPAPPLSKVPLQQNFQDNQFHGKWYVVGEAGNLLLREDKDPRKMTATIYELKEDKSYDVTRVEFGVKTYKYQIGTFVPGSQPGEFTLGGIKSMPGMTSFLVRVVSTNYNQHAMVFFKYVYQNREYFEITLYGRTKELTSELKENFIRFSKSLGLPENHIVFPVPIDQAIDGGGGGSGGGGSASDEEIQDVSGTWYLKAMTVDFWCSGIHEESVTPMTLTTLEGGNLEAKVTMDIEGFLQEFKAVLEKTDEPGKYTADGGKHVAYIIRSHVKDHYIFYSEGDCPGPVPGVWLVGRDPKNNLEALEDFEKAAGARGLSTESILIPRQSETSSPG
Consider B2, for which, in the experiment with human IL-17A [3], the “IC50, hIL-17A-induced secretion of G-CSF in U87-MG cells” value (“IC50, hIL-17A-induced secretion” for short) turned out to be 1.5 nM. The “IC50, hIL-23-induced proliferation of Ba/F3 cells expressing hIL-23R and hIL-12Rβ1” value with human IL-23 [4] stood at 4.4 nM. The IC50 in the experiment with human IL-17A [1] is 0.09 nM; with human IL-23 [2], 1.6 nM.

B3: fusion protein SEQ ID NO: 16 (designed binder)
chain: QDSTSDLIPAPPLSKVPLQQNFQDNQFHGKWYVVGMAGNLMLREDKDPTKMSATIYELKEDKSYNVTWVDFRFKKCKYQIGTFVPGSQPGEFTLGGIKSMPGMTSFLVRVVSTNYNQHAMVFFKYVYQNREYFEITLYGRTKELTSELKENFIRFSKSLGLPENHIVFPVPIDQCIDGGGGSGGGGSASDEEIQDVSGTWYLKAMTVDFWCSGIHEESVTPMTLTTLEGGNLEAKVTMDIEGFLQEFKAVLEKTDEPGKYTADGGKHVAYIIRSHVKDHYIFYSEGDCPGPVPGVWLVGRDPKNNLEALEDFEKAAGARGLSTESILIPRQSETSSPG
B3: in the experiment with human IL-17A [5], the “EC50 [nM] AVERAGE, hIL-17A-induced secretion of G-CSF in U87-MG cells” value stood at 2.2 nM; the “EC50 [nM] Exp 1, hIL-17A-induced secretion of G-CSF in U87-MG cells” value was determined as 2.3 nM; the “EC50 [nM] Exp 2, hIL-17A-induced secretion of G-CSF in U87-MG cells” value turned out to be 2.1 nM. Also, the IC50 in the experiment with human IL-17A [1] was 0.08 nM.

B4: fusion protein SEQ ID NO: 17 (designed binder)
chain: ASDEEIQDVSGTWYLKAMTVDFWCSGIHEESVTPMTLTTLEGGNLEAKVTMDIEGFLQEFKAVLEKTDEPGKYTADGGKHVAYIIRSHVKDHYIFYSEGDCPGPVPGVWLVGRDPKNNLEALEDFEKAAGARGLSTESILIPRQSETSSPGSGAGGGSGGGGSQDSTSDLIPAPPLSKVPLQQNFQDNQFHGKWYVVGMAGNLMLREDKDPTKMSATIYELKEDKSYNVTWVDFRFKKCKYQIGTFVPGSQPGEFTLGGIKSMPGMTSFLVRVVSTNYNQHAMVFFKYVYQNREYFEITLYGRTKELTSELKENFIRFSKSLGLPENHIVFPVPIDQCIDG
As to B4, in the experiment with human IL-17A [5], the “EC50 [nM] AVERAGE, hIL-17A-induced secretion of G-CSF in U87-MG cells” value stood at 1.7 nM; the “EC50 [nM] Exp 1, hIL-17A-induced secretion of G-CSF in U87-MG cells” value turned out to be 2.1 nM; the “EC50 [nM] Exp 2, hIL-17A-induced secretion of G-CSF in U87-MG cells” value is 1.3 nM. The same molecule came in with an IC50 with human IL-17A [1] of 0.05 nM.

B5: bivalent fusion protein (SEQ ID NO: 40) (designed binder)
chain: ASDEEIQDVSGTWYLKAMTVDFWCSGIHEESVTPMTLTTLEGGNLEAKVTMDIEGFLQEFKAVLEKTDEPGKYTADGGKHVAYIIRSHVKDHYIFYSEGDCPGPVPGVWLVGRDPKNNLEALEDFEKAAGARGLSTESILIPRQSETSSPGSGAGGGGSGGGGSASDEEIQDVSGTWYLKAMTVDFWCSGIHEESVTPMTLTTLEGGNLEAKVTMDIEGFLQEFKAVLEKTDEPGKYTADGGKHVAYIIRSHVKDHYIFYSEGDCPGPVPGVWLVGRDPKNNLEALEDFEKAAGARGLSTESILIPRQSETSSPG
On to B5, for which the “IC50, hIL-17A-induced secretion” value in the experiment with human IL-17A [3] stood at 0.12 nM.

B6: lipocalin mutein SEQ ID NO: 6 (designed binder)
chain: ASDEEIQDVSGTWYLKAMTVDWQCTWDDDPSVTPMTLTTLEGGNLEAKVTMPIFGLWQEEKAVLEKTDEPGKYTADGGKHVAYIIRSHVKDHYIFYSEGACYGQPVPGVWLVGRDPKNNLEALEDFEKAAGARGLSTESILIPRQSETSSPG
notes: Tear lipocalin mutein specific for IL-23p19
B6: the binding result in the experiment with human IL-12p40 is “no binding (tested: ligand up to 1000 nM)”. This molecule came in with an IC50 in the experiment with human IL-23 [6] of 25 nM.

B7: lipocalin mutein SEQ ID NO: 13 (designed binder)
chain: ASDEEIQDVSGTWYLKAMTVDWVCAFDDDPSVTPMTLTTLEGGNLEAKVTIPTFGLYQEEKAVLEKTDEPGKYTADGGKHVAYIIRSHVKDHYIFYSEGACHGHPVPGVWLVGRDPKNNLEALEDFEKAAGARGLSTESILIPRQSETSSPG
notes: as for B6
Take B7: the binding result with human IL-12p40 was “no binding (tested: ligand up to 1000 nM)”. In addition, in the experiment with human IL-23 [6], the IC50 was 11 nM.

B8: lipocalin mutein SEQ ID NO: 12 (designed binder)
chain: ASDEEIQDVSGTWYLKAMTVDWQCTWADEPSVTPMTLTTLEGGNLEAKVTIPTFGLAEEEKAVLEKTDEPGKYTADGGKHVAYIIRSHVKDHYIFYSEGRCWGRPVPGVWLVGRDPKNNLEALEDFEKAAGARGLSTESILIPRQSETSSPG
notes: as for B6
For the molecule B8, in the experiment with human IL-12p40, the binding result is listed as “no binding (tested: ligand up to 1000 nM)”. This molecule had an IC50 with human IL-23 [6] of 10 nM.

B9: lipocalin mutein SEQ ID NO: 2 (designed binder)
chain: ASDEEIQDVSGTWYLKAMTVDFWCSGVHEESVTPMTLTTLEGGNLEAKVTMDIGGFLQEVKAVLEKTDEPGKYTADGGKHVAYIIRSHVKDHYIFYSEGDCPGLPVPGVWLVGRDPKNNLEALEDFEKAAGARGLSTESILIPRQSETSSPG
Regarding B9, in the experiment with human IL-17A [3], the “IC50, hIL-17A-induced secretion” value stood at 289 nM.

B10: fusion protein SEQ ID NO: 53 (designed binder)
chain: ASDEEIQDVSGTWYLKAMTVDFWCSGIHEESVTPMTLTTLEGGNLEAKVTMDIEGFLQEFKAVLEKTDEPGKYTADGGKHVAYIIRSHVKDHYIFYSEGDCPGPVPGVWLVGRDPKNNLEALEDFEKAAGARGLSTESILIPRQSETSSPGSDGGGGSGGGGSQDSTSDLIPAPPLSKVPLQQNFQDNQFHGKWYVVGEAGNLLLREDKDPRKMTATIYELKEDKSYDVTRVEFGVKTYKYQIGTFVPGSQPGEFTLGGIKSMPGMTSFLVRVVSTNYNQHAMVFFKYVYQNREYFEITLYGRTKELTSELKENFIRFSKSLGLPENHIVFPVPIDQAIDG
On to B10, for which, in the experiment with human IL-17A [3], the “IC50, hIL-17A-induced secretion” value was 2.9 nM. Further, the “IC50, hIL-23-induced proliferation of Ba/F3 cells expressing hIL-23R and hIL-12Rβ1” value in the experiment with human IL-23 [4] worked out at 4.3 nM. Also, the IC50 in the experiment with human IL-17A [1] came out at 0.08 nM; with human IL-23 [2], 0.8 nM.
